# Test results reported in ChEMBL document CHEMBL4888484, “Replenishing the malaria drug discovery pipeline: Screening and hit evaluation of the MMV Hit Generation Library 1 (HGL1) against asexual blood stage Plasmodium falciparum ,using a nano luciferase reporter read-out” (2022).
# The whole screen tested about 150,000 compounds, of which about 540 (0.36%) showed an effect of 50% or more. This is one part of the list.
# Test system: Plasmodium falciparum
# Assay: Primary screen in NF54 nanoGlo assay, in single point, at 2uM, 72h; a lower Z score goes with more inhibition
# Format: functional, Erythrocyte
# Settings: timepoint 72 hour
SMILES,% Inhibition,Z score
COc1ccc2c(O)nn(C(=O)CCc3cnn(C)c3)c2c1,-8%,0.9
CC(=O)NC[C@H]1CCN(S(=O)(=O)c2ccc(C#N)cc2)C[C@H]1N(C)C,-5%,0.66
O=C(c1ccc(Cl)s1)N1CCCN(C[C@H]2CCCO2)CC1,-1%,0.08
CCn1cc(CNc2ccc(NC(=O)OC(C)(C)C)cc2C)cn1,-20%,1.92
Cc1cc2nc(C(=O)N3CCCN(c4ccccc4C)CC3)cc(C)n2n1,-3%,0.39
CCCCn1nc(CCOC)nc1-c1cc(C)nc(C)n1,-1%,0.18
CC1CCc2ccccc2C1Nc1ccc2nccnc2n1 (stereo unspecified),18%,-2.07
CCOc1ccc(CC(=O)N2CCN(c3ccc(=O)n(-c4ccc(Cl)cc4)n3)CC2)cc1OCC,14%,-1.66
CC1CN(c2ccc3nnnn3n2)CCN1CC(O)c1ccccc1 (stereo unspecified),3%,-0.51
O=C(Nc1cccc(-c2ccc(=O)[nH]n2)c1)c1cc2cc(F)ccc2o1,-10%,1.26
C[C@@H](Cn1cncn1)n1cnc2cccc(C(F)(F)F)c2c1=O,-8%,1.41
Fc1ccc(C2=C[C@@H](c3ccc(Cl)cc3)N3N=C(c4ccc(Cl)cc4)NC3=N2)cc1,96%,-14.66
CCC[C@H]1CN(c2nnnn2-c2ccccc2)C[C@@H]1NS(C)(=O)=O,1%,-0.18
COCCN(CCOC)C(=O)c1cnn(C)c1,-6%,0.88
O=C(NC12CCCC1C1CCC2C1)NC12CCCC1C1CCC2C1 (stereo unspecified),-3%,0.54
O=C(NCCC1CC1)NC1CCOC1c1ccc(F)c(F)c1 (stereo unspecified),-1%,0.14
O=C(NCc1ccc(N2CCCC2=O)cc1)NCc1cc[nH]n1,-7%,1.1
COc1ccc(CN2CCCN(c3ccccc3C)CC2)cc1CN1CCCC1,8%,-1.04
Cc1c(CN(C)C(=O)NC[C@H]2CC[C@@H](CO)O2)cnn1C,14%,-1.72
O=C(NCC[C@@H]1CCCC[C@@H]1O)NC1CC(F)(F)C1,-7%,0.91
CN1C(=O)CCC(NC(=O)NC[C@]23C[C@H]2COC32CCC2)C1=O (stereo partly specified),0%,0.03
C[C@@](O)(c1nc(-c2ccncc2Br)no1)C1CC1,9%,-1.09

SMILES,% Inhibition,Z score
CC(C)c1cc(-c2nc(-c3ccccn3)no2)[nH]n1,-11%,1.24
O=S(=O)(CC(O)CNC1COC2(CCC2)C1)c1cccs1 (stereo unspecified),-8%,1.16
CS(=O)(=O)N1CCO[C@@H](Cn2cc(-c3cccc(-n4cccn4)c3)nn2)C1,-10%,1.82
Nc1ncccc1CNC(=O)c1coc(COc2ccc(F)cc2Cl)n1,1%,-0.08
Cc1nn(CC(N)=O)c(C)c1-c1ccc(C2CCCC2)cc1,-6%,1.02
CC(C)n1ncnc1-c1ccc(C(=O)NCCCn2ccnn2)cc1,-2%,0.31
Cc1cc(OCC(=O)Nc2ccc(N(C)C)cc2)no1,-5%,0.49
COc1ccc(CN2CCC(CNC(=O)c3cncc(F)c3)CC2)c(C)c1C,-14%,1.26
CCCN(CCC)CCN1C(=O)[C@@H]2C(C(=O)Nc3cc(Cl)cc(Cl)c3)[C@@H]3C=C[C@]2(O3)C1C(=O)NC1CCCCC1 (stereo partly specified),47%,-4.6
N#Cc1cc(F)ccc1NCCN1CCCOCC1,7%,-0.69
Cc1nc(C(=O)Nc2cc(Cl)ccc2N2CCCC2=O)c(C)s1,29%,-3.34
CCNC(=O)NCCN1CCC(c2cccs2)CC1,-15%,2.24
COCCCN(CCOC)C(=O)Nc1ccnc(C)c1Cl,-6%,0.99
CC[C@H](C)C(=O)Nc1cc(C(=O)OC)cc(C(=O)OC)c1,19%,-2.34
COCCc1noc(-c2cnc(N(C)C)nc2C)n1,5%,-0.82
CCOc1ccccc1C(F)(F)C(=O)NC(C)(C)CO,4%,-0.79
CC(C)N1CCc2nc(CN3CC[C@H](O)C34CCCC4)sc2C1,1%,-0.1
COc1ccc2c(C)c(C(=O)N[C@H]3CCOC[C@@H]3O)oc2c1OC,-13%,2.02
c1cc(-c2nnn(CC3CCOCC3)n2)cs1,-4%,0.61
Cc1cc(=O)n(-c2nc3c(c(=O)n(C)c(=O)n3C)n2CCc2ccccc2)[nH]1,-5%,0.91
Cc1nn(C)c2ncnc(N(C)Cc3cccc(-c4nnn[nH]4)c3)c12,-8%,0.98
